Screen size: about 110,000 compounds; about 230 (0.21%) showed an effect of 50% or more. The list shows a part of the results.
Each compound was assayed against DPAP1 (Plasmodium falciparum, UniProt Q8IIJ9) (assay: primary screen, percent inhibition; read by cleavage of a fluorogenic dipeptide substrate; higher = more effect of the substance).
Chain of DPAP1 (Q8IIJ9 whole entry, looked up): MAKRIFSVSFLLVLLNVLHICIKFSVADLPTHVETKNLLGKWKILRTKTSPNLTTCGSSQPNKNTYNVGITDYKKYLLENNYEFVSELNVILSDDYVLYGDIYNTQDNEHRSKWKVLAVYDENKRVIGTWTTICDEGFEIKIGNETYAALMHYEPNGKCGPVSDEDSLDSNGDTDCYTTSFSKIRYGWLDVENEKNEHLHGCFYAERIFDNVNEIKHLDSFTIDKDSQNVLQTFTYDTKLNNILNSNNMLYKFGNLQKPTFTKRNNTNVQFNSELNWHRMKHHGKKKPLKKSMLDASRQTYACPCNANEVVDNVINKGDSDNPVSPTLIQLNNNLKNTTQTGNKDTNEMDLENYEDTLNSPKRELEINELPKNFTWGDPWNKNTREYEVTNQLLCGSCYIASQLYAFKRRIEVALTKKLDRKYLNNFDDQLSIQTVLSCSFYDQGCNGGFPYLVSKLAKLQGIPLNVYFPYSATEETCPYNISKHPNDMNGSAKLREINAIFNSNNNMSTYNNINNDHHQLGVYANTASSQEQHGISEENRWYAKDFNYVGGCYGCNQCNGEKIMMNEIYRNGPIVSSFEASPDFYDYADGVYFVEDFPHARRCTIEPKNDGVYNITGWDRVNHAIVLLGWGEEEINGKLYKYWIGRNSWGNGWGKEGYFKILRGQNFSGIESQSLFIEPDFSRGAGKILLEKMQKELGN
Parameters: species or system P. falciparum D10 trophozoite lysates; single well
For `O=C(NCc1ccco1)C1CC(=O)N(c2ccc(F)cc2)C1` (centres unmarked), the “% Inhibition @ 10 uM” value was 1.62%.
With `CNC(=O)/C(=C\c1ccc(OC)cc1)NC(=O)c1ccccc1` the “% Inhibition @ 10 uM” value was -1.37%.
With `c1nnc2c3c4c(sc3ncn12)CCC4` the “% Inhibition @ 10 uM” value was -0.178%.
With `Cc1cccc(-c2noc(CNC(=O)c3ccc(Br)o3)n2)c1` the “% Inhibition @ 10 uM” value was -2.99%.
In the case of `CCOc1cc(S(=O)(=O)Nc2cccnc2)ccc1Cl`, the “% Inhibition @ 10 uM” value is reported as 1.72%.
With `O=C(Nc1ccc(F)cc1)c1scc2c1CCCC2` the “% Inhibition @ 10 uM” value was -8.6%.
In the case of `CCOc1ccc(C(=O)/C=C/c2ccc(C(C)C)cc2)cc1`, the “% Inhibition @ 10 uM” value is reported as 2.94%.
`Cc1ccc(S(=O)(=O)NC(C(=O)N2CCOCCOCCOCC2)c2ccccc2)cc1` (centres unmarked) was tested, and the “% Inhibition @ 10 uM” value was -4.93%.
`CN1CC[C@@]2(O)CCCC[C@@H]2[C@H]1c1ccc(F)cc1` was tested, and the “% Inhibition @ 10 uM” value was -4.11%.
For `CCN1CCN(C(CNC(=O)c2ccc3c(c2)OCO3)c2cccnc2)CC1` (centres unmarked), the “% Inhibition @ 10 uM” value was -5.37%.
For `NC(=O)c1c(NC(=O)C(F)(F)F)sc2c1CCCCCC2`, the “% Inhibition @ 10 uM” value was -3.87%.
`CC(CCc1ccccc1)NC(=O)Cn1ncn2c(cc3sccc32)c1=O` (centres unmarked) was tested, and the “% Inhibition @ 10 uM” value was 4.95%.
`Cc1cc2c(c(=O)o1)C(c1ccc3ccccc3c1)C(C#N)=C(N)O2` (centres unmarked) was tested, and the “% Inhibition @ 10 uM” value was -2.22%.
For `Cc1cc(C)c(C#N)c(SCC(=O)c2ccc(C)c(C)c2)n1`, the “% Inhibition @ 10 uM” value was 16.2%.
For `COc1ccc(C2C=C(c3ccc(C)cc3)Nc3nnnn32)c(OC)c1` (centres unmarked), the “% Inhibition @ 10 uM” value was 0.0842%.
`COc1ccc2c(c1)CCC1C2=NN(C(C)=O)C1c1ccccc1` (centres unmarked) was tested, and the “% Inhibition @ 10 uM” value was 3.61%.
`O=C(Cn1c(C(=O)O)ccc1-c1ccco1)c1ccccc1` was tested, and the “% Inhibition @ 10 uM” value was -0.0309%.
With `CC(C)(C)OC(=O)N1CCC(C(=O)N2CCCC2)CC1` the “% Inhibition @ 10 uM” value was 1.63%.
In the case of `CCOC(=O)c1ccccc1NS(=O)(=O)c1ccccc1`, the “% Inhibition @ 10 uM” value is reported as -2.7%.
In the case of `O=C(NCc1ccco1)c1csc2c1CCCCC2`, the “% Inhibition @ 10 uM” value is reported as 0.277%.
With `CCCCO/C(O)=C1/C(C)=NC2=C(C(=O)CCC2)C1c1ccccc1` (centres unmarked) the “% Inhibition @ 10 uM” value was -5.92%.
In the case of `Cc1cc(Cl)ccc1OCC(=O)Nc1ccncc1`, the “% Inhibition @ 10 uM” value is reported as -1.88%.
With `CCn1c(SCC(=O)Nc2cccc(OC)c2)nc2c1c(=O)n(C)c(=O)n2C` the “% Inhibition @ 10 uM” value was -4.03%.
`CN1CCC(NCCc2ccccc2F)CC1` was tested, and the “% Inhibition @ 10 uM” value was 2.99%.
With `O=C(COc1ccccc1Br)N1CCOCC1` the “% Inhibition @ 10 uM” value was -8.82%.
`O=C1NC(NCCc2ccccc2)=N/C1=C\c1ccccc1Cl` was tested, and the “% Inhibition @ 10 uM” value was -4.02%.
With `Clc1ncnc2c1C(c1ccc(Br)cc1)c1c(Cl)ncnc1O2` the “% Inhibition @ 10 uM” value was -6.87%.
For `CC1CCN(CC(O)Cn2cnc3c2c(=O)n(C)c(=O)n3C)CC1` (centres unmarked), the “% Inhibition @ 10 uM” value was -6.66%.
`Cc1ccc(N(CC(=O)Nc2ccc(CC#N)cc2)S(=O)(=O)c2ccc(C)cc2)cc1` was tested, and the “% Inhibition @ 10 uM” value was -0.175%.

Reference: article PMC6919601, “Identification of Plasmodium dipeptidyl aminopeptidase allosteric inhibitors by high throughput screening” (PLoS ONE, 2019)
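Further: 30 min substrate incubation versus DMSO and 10 µM JCP410 controls.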
